# Data: PubChem BioAssay AID686979 (National Center for Advancing Translational Sciences (NCATS), 2013)
# About 50,000 (12%) of roughly 420,000 compounds were called active. The inconclusive results got no clear call from the source; some entries with a clear call stand among them for comparison. Calls follow the shape of the dose curve; as a rule, active = well fitted inhibition curve with a large enough effect; inconclusive = small, poorly fitted or top-dose-only effect; inactive = flat fitted curve, though single readings scatter. Potencies of inconclusive entries are left out as doubtful fits.
# Test: qHTS for Inhibitors of human tyrosyl-DNA phosphodiesterase 1 (TDP1): qHTS in cells in presence of CPT; also: nearly all actives have a fitted effect of over 55% in size
# Conditions: chicken DT40 Tdp1-/-;hTDP1 cells + 20 nM CPT, ATP luminescence, 48 h; activity change, negative = growth inhibition: at 46.2 µM (top of the series)
# Procedure, shortened: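 Cell growth measured by CellTiter-Glo luminescence after a minimum 48 h, 37 C compound exposure with 20 nM CPT in Tdp1-knockout DT40 cells stably expressing hTDP1, seeded 400/well; qHTS titration format.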
# % is scaled to controls: 0 for no effect and ±100 for the full control effect; potency is read from the fitted curve at half-maximal effect; tags tell the direction and shape of the fitted curve.
SMILES,Potency,"activity change, negative = growth inhibition"
Cn1ncc2c(Nc3ccc(Cl)c(Cl)c3)ncnc21,"inconclusive [inhibitor, single point]",
COc1ccc(C)cc1NC(=O)CCN1CCN(c2ccccc2F)CC1,"inconclusive [inhibitor, single point]",
O=C(c1ccccc1)N1CCCC(C(=O)N2CCN(c3ccccc3)CC2)C1 (centres undefined),"inconclusive [inhibitor, single point]",
Cc1cccc2c(=O)cc(CSCC(=O)Nc3ccc(Cl)cc3)[nH]c12,inactive,
COC(=O)[C@]12CCCCC=C1N(Cc1cccc3ccccc13)C(=O)[C@H](CC(=O)NCC1CCCCC1)C2,"inconclusive [inhibitor, single point]",
CCOc1ccc(C(=O)Nc2ccc(-c3nnc4n3CCCCC4)cc2)cc1OCC,"inconclusive [inhibitor, single point]",
CC(C)(C)c1ccc(C(=O)NCCN2CCOCC2)cc1,inactive,
Cc1oc(-c2ccc(Cl)cc2)nc1CS(=O)CC(=O)NCCCN1CCCC(C)C1 (centres undefined),"inconclusive [inhibitor, single point]",
CC(C)C[C@H]1CN([C@@H](CC(C)C)CN2CCC[C@H]2CN2C(=O)C(=O)NC[C@@H]2Cc2ccc(O)cc2)C(=O)C(=O)N1CC1CCCCCC1,"inconclusive [inhibitor, single point]",
CCCCNC(=O)CN1C(=O)c2c(c3ccccc3n2C)C1c1ccc(OC)cc1 (centres undefined),"inconclusive [inhibitor, single point]",
COc1cc(/C=C(\NC(=O)c2ccccc2)C(=O)NC(C(=O)O)c2ccccc2)cc(OC)c1OC (centres undefined),inactive,
Cc1cc(NCC(=O)Nc2ccc(C)c(S(=O)(=O)N3CCOCC3)c2)ccc1Br,"inconclusive [inhibitor, single point]",
CC(=O)c1ccc(NC(=O)C2CCCN(C(=O)c3ccc(Cl)cc3)C2)cc1 (centres undefined),active: 25.9 µM,
CCn1c2ccccc2c2cc(NC(=O)CCCN3C(=O)CCC3=O)ccc21,"inconclusive [inhibitor, single point]",
COc1ccc(NC(=O)CSc2nc3ccccc3c(=O)n2C)cc1,"inconclusive [inhibitor, single point]",
CC(C)(C)C(=O)Nc1nc2nc(-c3ccccc3)cc(=O)n2[nH]1,inactive,
CCCCNc1c(-c2ccc(OC)c(Sc3ccc(OC)cc3)c2)nc2ccccn12,active: 4.11 µM,
COc1cc2c(cc1OC)CN(C(=O)CCNS(=O)(=O)c1ccc(Br)cc1)CC2,inactive,
COc1cc(/C=C(\C#N)c2nc3ccccc3[nH]2)cc(Br)c1OCc1ccc(F)cc1,"inconclusive [inhibitor, partial curve]",
Cc1ccc2oc(-c3cccc(NC(=O)c4ccc(N5CCC(C)CC5)c([N+](=O)[O-])c4)c3)nc2c1,active: 18.4 µM,
Cc1cc(C(=O)CN2C(=O)C(=O)N(Cc3ccccc3)C2=O)c(C)n1Cc1ccccc1,,inconclusive: -30% [inhibitor]
CN(C)C(=O)c1ccc(-c2nccc(NCc3ccccc3)n2)cc1,"inconclusive [inhibitor, partial curve, poor fit]",

SMILES,Potency,"activity change, negative = growth inhibition"
Cc1cc(OCc2cc(C(=O)N(C)Cc3nonc3C)no2)cc(C)c1Cl,"inconclusive [inhibitor, single point]",
CC1CCc2c(sc(NC(=O)c3cccs3)c2C(=O)O)C1 (centres undefined),"inconclusive [inhibitor, single point]",
Cc1cccc(C(=O)NNC(=O)c2cccc(C)c2)c1,inactive,
CC(C)(C)n1nnnc1C(c1ccccc1)N1CCN(c2ccccc2)CC1 (centres undefined),"inconclusive [inhibitor, partial curve, poor fit]",
O=C1CCN(Cc2ccc(Br)cc2)CCN1[C@H](CO)c1ccccc1,"inconclusive [inhibitor, single point]",
CCOc1ccc(/C(O)=C2/C(=O)C(=O)N(CCN(CC)CC)C2c2cccs2)cc1 (centres undefined),"inconclusive [inhibitor, single point]",
NS(=O)(=O)c1ccc(NC(=O)/C=C/c2ccccc2Cl)cc1,inactive,
CCOC(=O)C1CCN(C(=O)c2cccc(S(=O)(=O)N3c4ccccc4CC3C)c2)CC1 (centres undefined),,inconclusive: -33.1% [inhibitor]
C[n+]1ccc(/C=C/c2ccc(F)cc2)c2ccccc21,active: 8.91 µM,
CC(C)(C)c1cn(-c2ccccc2)c(=S)[nH]1,inactive,
Cc1oc(-c2ccc(Cl)cc2)nc1CN1CCCC(C(=O)NCCc2ccccc2)C1 (centres undefined),active: 8.2 µM,
CN(C)c1ccc2c(=O)cc[nH]c2c1,inactive,
CCc1cccc(C)c1NC(=O)c1cc(S(=O)(=O)N2CCC3(CC2)OCCO3)ccc1F,"inconclusive [inhibitor, full curve]",
Cn1cc(Cl)c(C(=O)NC2CCCCCC2)n1,inactive,
CC(C)(C)OC(=O)C(Oc1ccccc1[N+](=O)[O-])C(=O)OC(C)(C)C,"inconclusive [inhibitor, single point]",
NS(=O)(=O)c1ccc(CCn2c(=S)[nH]c3ccc(F)cc3c2=O)cc1,"inconclusive [inhibitor, partial curve]",
CC(=O)c1sc(NC(=O)c2ccc(Br)o2)nc1C,"inconclusive [inhibitor, single point]",
COC(=O)CCCNC(=O)c1ccc(OS(=O)(=O)c2cc([N+](=O)[O-])ccc2C)cc1,inactive,
C[C@]12C=CC(=O)C=C1CC[C@@H]1[C@@H]2C(=O)C[C@@]2(C)[C@H]1CC[C@]2(O)C(=O)CO,inactive,
COc1ccc2nc(SCC(=O)NCc3ccc(F)cc3)[nH]c2c1,"inconclusive [inhibitor, partial curve]",
Cc1ccc(S(=O)(=O)N2CCCc3cc(NS(=O)(=O)c4ccc(C)c(C)c4)ccc32)cc1,"inconclusive [inhibitor, single point]",
COc1nc(OC)nc(N2CCC(C(=O)NCc3cccs3)CC2)n1,inactive,
